The text below walks through data of PubChem BioAssay.

A short description of assay [1]: reduced OD of T4-infected AddAB+ E. coli – absorbance, E. coli V3065, T4 phage, triplicate, AddAB inhibitor project, confirmation (AID 488942;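 active = mean inhibition above a set limit taken from the earlier primary screen, cut at about 13% in these data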;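 also: higher means less bacterial growth since AddAB block lets phage replicate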). The following applies: E. coli V3065 expressing H. pylori AddAB, at 11.9 µM, hits give high values, T4 phage with gene 2 nonsense mutations.
The nature of assay [2]: reduced OD of phage-infected RecBCD+ V66 E. coli – absorbance, mutant T4 phage, counter-screen for AddAB inhibitor project (AID 488955;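 active = mean inhibition above the mean of solvent-only control wells plus 3 SD, cut at about 4% in these data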;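 also: optical density read after an 18 h incubation at 37 °C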). The following applies: OD growth, at 11.9 µM, hits give high values. A general note: The purpose of a counterscreen is to sort out artefacts and off-target activity.
Assay [3] in a line: bacterial growth inhibitors – absorbance, counter-screen for AddAB inhibitor project, confirmation (AID 488956; in the data active = inhibition above about 25%). The conditions noted are these: bacterial viability, absorbance (AddAB counterscreen); at 11.9 µM; hits give high values.
Assay [4] can be described thus: reduced OD of V66 E. coli with T4 gene 2 phage – absorbance, RecBCD inhibitor project, confirmation (AID 651982;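 active = mean inhibition over triplicates exceeding the hit threshold derived in the original primary screen, cut at about 11% in these data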). The conditions noted are these: E. coli V66 + T4 2- phage, growth OD; at 11.9 µM; hits give high values.
A short description of assay [5]: bacterial growth inhibition – absorbance, high throughput, counter-screen for RecBCD inhibitor project (AID 651983).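 Also: E. coli strain V66 grown with compound alone and no phage infection; 0% = bacteria with DMSO vehicle only.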 The following applies: E. coli viability, absorbance (OD) growth; at 11.9 µM; hits give high values.
The nature of assay [6]: reduced optical density, T4-challenged addAB+ bacteria – absorbance, E. coli V3065, T4 phage, counter-screen for RecBCD inhibitor project, confirmation (AID 651984;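 active = mean inhibition above the solvent-only control wells' mean plus 3 SD, cut at about 22% in these data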;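 also: higher means less bacterial growth from phage killing when AddAB is blocked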). The conditions noted are these: E. coli expressing H. pylori AddAB + T4 phage, OD growth; at 11.9 µM; hits give high values; gene 2 mutant T4, recBCD-deleted host.

Only a part is listed here, and it is no random draw. The source made the active and inactive calls. Rule as the data show it, unless noted: active = inhibition above about 20%; inactive = the rest.

`O=C1OCCN1/N=C/c1ccc([N+](=O)[O-])o1`: the inhibition in assay [1] was active: 103%; in assay [2], active: 102%; in assay [3] it was active: 105%; in assay [4] it was active: 104%; in assay [5], active: 106%; in assay [6], active: 103%.
As to `CCn1cc(C(=O)O)c(=O)c2cc(F)c(N3CCN(C)CC3)cc21`, the inhibition in assay [1] is active: 96%; in assay [2] it was active: 98.5%; in assay [3], active: 96.6%; in assay [4], active: 99.5%; in assay [5], active: 100%; in assay [6], active: 100%.
Turning to `Cc1cc(/C=C\c2ccc3cc(N(C)C)ccc3[n+]2C)c(C)n1-c1ccccc1`, the inhibition in assay [2] was active: 11.8%.
As for `O=C(N/N=C/c1ccc(O)c2ncccc12)c1cccc(Br)c1`, the inhibition in assay [4] is active: 11.8%; in assay [5] it was inactive: 14.9%; in assay [6], inactive: 15.1%.

The term inhibition denotes the drop in the measured response relative to a control, in per cent.
